Experimental data: patent US20230127258

Biological target: TCP-25 (thrombin-derived C-terminal peptide, …)

B1: human neutrophil elastase (protein)
chain: IVGGRRARPHAWPFMVSLQLRGGHFCGATLIAPNFVMSAAHCVANVNVRAVRVVLGAHNLSRREPTRQVFAVQRIFENGYDPVNLLNDIVILQLNGSATINANVQVAQLPAQGRRLGNGVQCLAMGWGLLGRNRGIASVLQELNVTVVTSLCRRSNVCTLVRGRQAGVCFGDSGSPLVCNGLIHGIASFVRGGCASGLYPDAFAPVAQFVNWIDSIIQ
  digestion of TCP-25 with HNE, MALDI mass spectra: After 180 min, no intact TCP-25 could be detected from the solution or gel sample
